Results reported in PMC5896957.
Where two headings read alike, the source gives them in different places. No constants are given. Whether binding was seen depends on the method and setting. Binding seen in cells or lysates may run through a third protein. Some entries that bind do so weakly or less than the wild type. Each block holds one molecule with its values, some of them ahead of it.

By UniProt entry, the sequences of proteins in these tests, tags left out.
UniProt O15234: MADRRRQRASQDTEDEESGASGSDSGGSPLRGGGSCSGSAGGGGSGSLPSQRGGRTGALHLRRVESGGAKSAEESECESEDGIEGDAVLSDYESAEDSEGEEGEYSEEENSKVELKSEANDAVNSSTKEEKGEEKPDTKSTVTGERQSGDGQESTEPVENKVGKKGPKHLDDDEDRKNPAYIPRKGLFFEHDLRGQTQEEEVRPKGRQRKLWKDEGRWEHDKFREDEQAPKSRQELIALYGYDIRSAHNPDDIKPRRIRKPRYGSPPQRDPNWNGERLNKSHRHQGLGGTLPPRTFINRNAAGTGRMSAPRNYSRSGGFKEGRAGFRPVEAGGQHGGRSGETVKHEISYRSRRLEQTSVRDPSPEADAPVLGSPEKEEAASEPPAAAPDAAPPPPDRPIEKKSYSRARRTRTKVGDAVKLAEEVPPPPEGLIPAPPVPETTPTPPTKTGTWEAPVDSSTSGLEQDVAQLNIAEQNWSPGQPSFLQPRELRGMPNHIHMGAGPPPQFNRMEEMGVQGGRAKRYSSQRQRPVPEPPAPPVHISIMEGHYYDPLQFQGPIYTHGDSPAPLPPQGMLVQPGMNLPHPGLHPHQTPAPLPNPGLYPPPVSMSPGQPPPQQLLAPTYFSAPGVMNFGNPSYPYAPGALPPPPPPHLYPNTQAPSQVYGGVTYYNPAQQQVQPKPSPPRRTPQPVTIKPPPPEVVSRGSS
UniProt Q9Y2F5: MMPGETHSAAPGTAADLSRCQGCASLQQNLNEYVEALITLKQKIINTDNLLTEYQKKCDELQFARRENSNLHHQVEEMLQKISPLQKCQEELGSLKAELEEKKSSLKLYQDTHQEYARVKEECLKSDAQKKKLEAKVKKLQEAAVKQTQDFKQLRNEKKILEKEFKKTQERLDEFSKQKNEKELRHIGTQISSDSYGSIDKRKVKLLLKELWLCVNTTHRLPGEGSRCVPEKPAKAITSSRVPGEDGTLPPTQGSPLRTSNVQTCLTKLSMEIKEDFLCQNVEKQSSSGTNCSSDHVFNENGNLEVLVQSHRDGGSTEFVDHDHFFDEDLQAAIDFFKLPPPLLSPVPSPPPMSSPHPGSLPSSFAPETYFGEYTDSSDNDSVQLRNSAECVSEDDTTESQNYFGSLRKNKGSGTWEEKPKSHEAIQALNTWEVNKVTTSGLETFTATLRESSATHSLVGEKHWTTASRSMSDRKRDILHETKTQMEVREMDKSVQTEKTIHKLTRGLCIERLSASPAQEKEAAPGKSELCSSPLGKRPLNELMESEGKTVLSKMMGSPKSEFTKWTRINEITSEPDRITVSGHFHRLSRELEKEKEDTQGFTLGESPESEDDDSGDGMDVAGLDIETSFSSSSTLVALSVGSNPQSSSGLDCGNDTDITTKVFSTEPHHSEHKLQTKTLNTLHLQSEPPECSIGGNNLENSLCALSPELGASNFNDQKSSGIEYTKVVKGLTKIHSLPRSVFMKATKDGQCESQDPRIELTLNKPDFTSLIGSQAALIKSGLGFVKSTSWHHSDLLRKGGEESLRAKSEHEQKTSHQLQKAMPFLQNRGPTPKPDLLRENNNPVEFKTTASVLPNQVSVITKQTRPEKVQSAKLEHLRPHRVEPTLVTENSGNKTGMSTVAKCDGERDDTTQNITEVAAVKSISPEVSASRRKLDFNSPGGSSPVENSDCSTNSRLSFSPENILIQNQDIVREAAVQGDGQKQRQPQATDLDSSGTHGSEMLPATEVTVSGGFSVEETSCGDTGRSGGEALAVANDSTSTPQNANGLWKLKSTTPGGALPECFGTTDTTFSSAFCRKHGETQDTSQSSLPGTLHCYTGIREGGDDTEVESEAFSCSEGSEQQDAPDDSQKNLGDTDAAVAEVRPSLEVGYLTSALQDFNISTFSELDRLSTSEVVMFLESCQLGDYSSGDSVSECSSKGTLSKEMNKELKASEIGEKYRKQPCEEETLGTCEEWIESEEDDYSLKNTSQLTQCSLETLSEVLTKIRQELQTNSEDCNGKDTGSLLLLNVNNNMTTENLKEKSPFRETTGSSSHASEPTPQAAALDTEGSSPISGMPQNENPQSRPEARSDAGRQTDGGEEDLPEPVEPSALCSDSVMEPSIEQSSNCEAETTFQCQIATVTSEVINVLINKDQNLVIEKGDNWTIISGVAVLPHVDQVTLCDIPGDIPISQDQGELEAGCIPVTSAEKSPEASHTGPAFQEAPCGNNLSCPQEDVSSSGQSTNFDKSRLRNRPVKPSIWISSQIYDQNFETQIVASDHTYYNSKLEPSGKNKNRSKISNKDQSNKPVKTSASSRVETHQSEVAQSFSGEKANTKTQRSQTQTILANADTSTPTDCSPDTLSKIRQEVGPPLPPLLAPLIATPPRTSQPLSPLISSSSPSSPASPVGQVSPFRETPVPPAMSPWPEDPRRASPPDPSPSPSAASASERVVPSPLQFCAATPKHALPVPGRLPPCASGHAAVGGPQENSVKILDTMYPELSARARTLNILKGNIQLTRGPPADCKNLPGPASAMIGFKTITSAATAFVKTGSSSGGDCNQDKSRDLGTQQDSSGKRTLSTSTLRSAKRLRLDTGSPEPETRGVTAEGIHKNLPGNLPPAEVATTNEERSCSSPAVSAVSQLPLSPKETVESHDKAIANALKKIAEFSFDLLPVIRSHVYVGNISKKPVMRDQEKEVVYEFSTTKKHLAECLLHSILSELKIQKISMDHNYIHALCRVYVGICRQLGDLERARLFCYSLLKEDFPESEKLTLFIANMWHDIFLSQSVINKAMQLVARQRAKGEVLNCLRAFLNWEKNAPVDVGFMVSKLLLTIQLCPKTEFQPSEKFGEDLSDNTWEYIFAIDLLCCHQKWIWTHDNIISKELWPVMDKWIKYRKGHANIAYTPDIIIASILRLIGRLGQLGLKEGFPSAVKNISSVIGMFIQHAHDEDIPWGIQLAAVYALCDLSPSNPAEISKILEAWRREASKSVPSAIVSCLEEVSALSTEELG
UniProt P38919: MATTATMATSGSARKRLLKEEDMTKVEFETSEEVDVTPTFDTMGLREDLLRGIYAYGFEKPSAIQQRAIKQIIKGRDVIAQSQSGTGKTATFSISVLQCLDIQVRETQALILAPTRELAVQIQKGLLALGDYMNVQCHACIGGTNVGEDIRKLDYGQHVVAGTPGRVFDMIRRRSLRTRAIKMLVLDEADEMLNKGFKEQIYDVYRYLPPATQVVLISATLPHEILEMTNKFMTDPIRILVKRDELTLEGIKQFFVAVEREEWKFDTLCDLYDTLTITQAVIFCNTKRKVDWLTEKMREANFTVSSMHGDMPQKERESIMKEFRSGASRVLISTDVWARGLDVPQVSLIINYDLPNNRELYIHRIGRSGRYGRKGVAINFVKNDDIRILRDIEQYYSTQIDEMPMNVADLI
UniProt Q9HAU5: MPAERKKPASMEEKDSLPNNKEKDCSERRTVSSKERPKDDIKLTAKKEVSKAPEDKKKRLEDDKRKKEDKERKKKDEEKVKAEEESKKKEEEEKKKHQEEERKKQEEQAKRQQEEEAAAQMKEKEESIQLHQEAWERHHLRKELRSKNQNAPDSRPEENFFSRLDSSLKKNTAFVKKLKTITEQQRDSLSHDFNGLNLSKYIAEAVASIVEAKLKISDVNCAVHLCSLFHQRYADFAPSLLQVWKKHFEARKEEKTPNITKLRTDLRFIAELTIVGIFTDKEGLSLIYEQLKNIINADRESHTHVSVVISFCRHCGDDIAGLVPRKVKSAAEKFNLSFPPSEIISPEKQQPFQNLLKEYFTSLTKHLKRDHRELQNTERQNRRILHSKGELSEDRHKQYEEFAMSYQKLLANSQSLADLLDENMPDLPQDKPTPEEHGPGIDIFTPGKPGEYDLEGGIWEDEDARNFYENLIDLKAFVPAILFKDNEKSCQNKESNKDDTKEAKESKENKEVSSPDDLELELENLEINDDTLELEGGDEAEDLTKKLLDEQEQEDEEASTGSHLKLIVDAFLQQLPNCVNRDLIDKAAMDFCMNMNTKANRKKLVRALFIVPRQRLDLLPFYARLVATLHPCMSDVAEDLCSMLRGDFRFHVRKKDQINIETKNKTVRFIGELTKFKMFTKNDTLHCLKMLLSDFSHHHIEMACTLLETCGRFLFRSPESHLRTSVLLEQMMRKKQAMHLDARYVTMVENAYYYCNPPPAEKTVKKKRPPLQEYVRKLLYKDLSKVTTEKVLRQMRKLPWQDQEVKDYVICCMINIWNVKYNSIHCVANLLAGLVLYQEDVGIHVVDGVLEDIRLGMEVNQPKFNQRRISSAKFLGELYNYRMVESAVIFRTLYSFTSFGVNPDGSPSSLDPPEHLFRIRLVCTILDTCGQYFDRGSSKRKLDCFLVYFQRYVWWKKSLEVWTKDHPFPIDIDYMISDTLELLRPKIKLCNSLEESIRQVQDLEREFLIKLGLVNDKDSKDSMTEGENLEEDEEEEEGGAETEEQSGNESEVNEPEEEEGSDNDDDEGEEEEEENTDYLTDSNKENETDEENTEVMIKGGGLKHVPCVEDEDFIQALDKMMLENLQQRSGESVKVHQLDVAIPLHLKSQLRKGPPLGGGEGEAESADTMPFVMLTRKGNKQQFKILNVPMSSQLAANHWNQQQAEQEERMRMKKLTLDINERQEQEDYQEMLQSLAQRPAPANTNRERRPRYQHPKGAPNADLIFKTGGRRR
UniProt P61326: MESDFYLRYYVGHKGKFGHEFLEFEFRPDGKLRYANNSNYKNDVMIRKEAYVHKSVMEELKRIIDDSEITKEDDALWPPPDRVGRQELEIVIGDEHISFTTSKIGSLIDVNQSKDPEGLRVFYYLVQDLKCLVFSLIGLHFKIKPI

What was measured:
[1] = target: CASC3 (human (endogenous in HEK-293)) (UniProt O15234); assay: co-IP; IP with CASC3 antibody or IgG from HEK-293 lysates of cells treated with non-targeting (siNT) or ICE1 (siICE1) siRNA; endogenous proteins; immunoblot
[2] = target: 3XFLAG-tagged full-length ICE1 (human) (UniProt Q9Y2F5); assay: co-IP; anti-FLAG IP from HEK-293 lysates transiently overexpressing 3XFLAG-tagged ICE1 constructs; endogenous preys; immunoblot
[3] = target: ICE1 (interactor of little elongation complex ELL subunit 1) (human (endogenous in HEK-293)) (UniProt Q9Y2F5); assay: co-IP; endogenous proteins; HEK-293 whole cell lysates (hypotonic freeze/thaw lysis, 150 mM NaCl); IP with antibodies against ICE1, UPF3B, eIF4AIII (monoclonal) or control IgG; no RNase; immunoblot
[4] = target: eIF4AIII (human (endogenous in HEK-293)) (UniProt P38919); assay: as above
[5] = target: T1, UPF3B (human (endogenous in HEK-293)) (UniProt Q9BZI7); assay: co-IP; anti-UPF3B IP from HEK-293 lysates transiently overexpressing 3Xmyc-ICE1 MIF4G (a.a. 1921–2266); immunoblot
T1 sequence: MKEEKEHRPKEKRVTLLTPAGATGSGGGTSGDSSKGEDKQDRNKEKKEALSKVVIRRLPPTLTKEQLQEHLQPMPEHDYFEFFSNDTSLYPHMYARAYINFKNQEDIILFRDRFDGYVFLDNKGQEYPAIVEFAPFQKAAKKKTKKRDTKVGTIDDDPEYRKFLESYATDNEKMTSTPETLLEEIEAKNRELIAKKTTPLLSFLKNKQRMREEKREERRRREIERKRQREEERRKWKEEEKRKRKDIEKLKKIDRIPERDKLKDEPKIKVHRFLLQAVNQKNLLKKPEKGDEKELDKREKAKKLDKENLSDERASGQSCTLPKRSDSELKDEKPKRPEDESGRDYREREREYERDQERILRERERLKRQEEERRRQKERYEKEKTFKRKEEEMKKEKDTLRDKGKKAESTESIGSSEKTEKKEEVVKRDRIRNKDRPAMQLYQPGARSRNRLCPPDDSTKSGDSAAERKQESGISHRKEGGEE

[6] = target: T1, UPF3B (human (endogenous in HEK-293)); assay: co-IP; endogenous proteins; HEK-293 whole cell lysates (hypotonic freeze/thaw lysis, 150 mM NaCl); IP with antibodies against ICE1, UPF3B, eIF4AIII (monoclonal) or control IgG; no RNase; immunoblot
[7] = target: ICE1 (interactor of little elongation complex ELL subunit 1) (human (endogenous in HEK-293)) (UniProt Q9Y2F5); assay: as above; remark: listed apart in the source
[8] = target: T1, UPF3B (human (endogenous in HEK-293)); assay: as above; remark: listed apart in the source

binding [1]: binds
Molecule: eIF4AIII (from UniProt P38919 1-411)

binding [2]: binds
binding [3]: binds
binding [4]: binds
Molecule: CASC3 (from UniProt O15234 1-703)

binding [5]: binds
binding [3]: no binding
binding [6]: binds
Molecule: UPF2 (from UniProt Q9HAU5 1-1272)

binding [3]: binds
Molecule: MAGOH (from UniProt P61326 1-146)

binding [6]: no binding
Molecule: ICE1 (interactor of little elongation complex ELL subunit 1) (from UniProt Q9Y2F5 1-2266)

binding [7]: no binding
B1: UPF3B (protein, UniProt Q9BZI7 1-483)
chain: MKEEKEHRPKEKRVTLLTPAGATGSGGGTSGDSSKGEDKQDRNKEKKEALSKVVIRRLPPTLTKEQLQEHLQPMPEHDYFEFFSNDTSLYPHMYARAYINFKNQEDIILFRDRFDGYVFLDNKGQEYPAIVEFAPFQKAAKKKTKKRDTKVGTIDDDPEYRKFLESYATDNEKMTSTPETLLEEIEAKNRELIAKKTTPLLSFLKNKQRMREEKREERRRREIERKRQREEERRKWKEEEKRKRKDIEKLKKIDRIPERDKLKDEPKIKVHRFLLQAVNQKNLLKKPEKGDEKELDKREKAKKLDKENLSDERASGQSCTLPKRSDSELKDEKPKRPEDESGRDYREREREYERDQERILRERERLKRQEEERRRQKERYEKEKTFKRKEEEMKKEKDTLRDKGKKAESTESIGSSEKTEKKEEVVKRDRIRNKDRPAMQLYQPGARSRNRLCPPDDSTKSGDSAAERKQESGISHRKEGGEE

binding [7]: no binding
binding [8]: binds
B2: UPF1 (protein, UniProt Q92900 1-1129)
chain: MSVEAYGPSSQTLTFLDTEEAELLGADTQGSEFEFTDFTLPSQTQTPPGGPGGPGGGGAGGPGGAGAGAAAGQLDAQVGPEGILQNGAVDDSVAKTSQLLAELNFEEDEEDTYYTKDLPIHACSYCGIHDPACVVYCNTSKKWFCNGRGNTSGSHIVNHLVRAKCKEVTLHKDGPLGETVLECYNCGCRNVFLLGFIPAKADSVVVLLCRQPCASQSSLKDINWDSSQWQPLIQDRCFLSWLVKIPSEQEQLRARQITAQQINKLEELWKENPSATLEDLEKPGVDEEPQHVLLRYEDAYQYQNIFGPLVKLEADYDKKLKESQTQDNITVRWDLGLNKKRIAYFTLPKTDSGNEDLVIIWLRDMRLMQGDEICLRYKGDLAPLWKGIGHVIKVPDNYGDEIAIELRSSVGAPVEVTHNFQVDFVWKSTSFDRMQSALKTFAVDETSVSGYIYHKLLGHEVEDVIIKCQLPKRFTAQGLPDLNHSQVYAVKTVLQRPLSLIQGPPGTGKTVTSATIVYHLARQGNGPVLVCAPSNIAVDQLTEKIHQTGLKVVRLCAKSREAIDSPVSFLALHNQIRNMDSMPELQKLQQLKDETGELSSADEKRYRALKRTAERELLMNADVICCTCVGAGDPRLAKMQFRSILIDESTQATEPECMVPVVLGAKQLILVGDHCQLGPVVMCKKAAKAGLSQSLFERLVVLGIRPIRLQVQYRMHPALSAFPSNIFYEGSLQNGVTAADRVKKGFDFQWPQPDKPMFFYVTQGQEEIASSGTSYLNRTEAANVEKITTKLLKAGAKPDQIGIITPYEGQRSYLVQYMQFSGSLHTKLYQEVEIASVDAFQGREKDFIILSCVRANEHQGIGFLNDPRRLNVALTRARYGVIIVGNPKALSKQPLWNHLLNYYKEQKVLVEGPLNNLRESLMQFSKPRKLVNTINPGARFMTTAMYDAREAIIPGSVYDRSSQGRPSSMYFQTHDQIGMISAGPSHVAAMNIPIPFNLVMPPMPPPGYFGQANGPAAGRGTPKGKTGRGGRQKNRFGLPGPSQTNLPNSQASQDVASQPFSQGALTQGYISMSQPSQMSQPGLSQPELSQDSYLGDEFKSQIDVALSQDSTYQGERAYQHGGVTGLSQY
